Test results from PubChem BioAssay AID445 (National Center for Advancing Translational Sciences (NCATS), 2006).
About 40 (0.04%) of roughly 110,000 compounds were called active. Inconclusive results, whose numbers are uncertain, are shown with a selection of clear calls. Calls follow the shape of the dose curve; as a rule, active = well fitted curve in the direction sought with a large enough effect in the signal ratio (not every such curve was filed as active); inconclusive = small, poorly fitted or top-dose-only effect, or a change in a side signal; inactive = flat fitted curve, though single readings scatter; the % refers to the signal ratio. A potency beside an inconclusive call is a rough fit, not a confirmed value.

assay: IkB Signaling; details: ABC-DLBCL IkBa-CBG/CBR dual luciferase ratio (green luciferase fused to IkBa over red control in OCI-Ly3 lymphoma cells), 4 h; IkBa stabilization activation: at 57.1 µM (top of the series), scaled: untreated 0%, proteasome inhibitor 100% unless noted;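 as to IkBa stabilization activation: 0% = basal untreated cells and 100% = reference inhibitor full response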
Outline: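 Curves were fitted separately to fusion (green), unfused (red) and ratio luminescence, then classed by r2, magnitude and activity. Cells: OCI-Ly3, 4 h compound plus doxycycline at 37C; 10 uM MG-132 defined full response.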
Potency is read from the fitted curve at half-maximal effect.

Row | SMILES | IkBa stabilization activation | Potency
1 | CC(=O)c1ccc(N2CCN(C(=O)C3CCCN(S(=O)(=O)c4ccc(Br)s4)C3)CC2)cc1 (centres undefined) | inconclusive: 16.1% [signal inhibitor] | 
2 | Cn1c(C(=O)N(Cc2ccccc2)Cc2ccccn2)cc2sccc21 | inconclusive: 2.29% [signal inhibitor] | 
3 | Cc1cccc(-n2c(SCC(=O)NCc3ccco3)nc3ccccc3c2=O)c1 | inactive | 
4 | Cc1ccc(-n2nc3ccc(NC(=O)COc4ccccc4C)cc3n2)cc1 | inactive | 
5 | O=C(NCCc1ccccc1)c1ccc(-n2cnnn2)cc1 | inactive | 
6 | CCC1CN(S(=O)(=O)c2cc(-c3cc(C)no3)ccc2C)c2cc(C)ccc2O1 (centres undefined) | inactive | 
7 | Cc1ccc(C)c(N2CCN(C(=O)C3CCCN(S(=O)(=O)c4c(C)noc4C)C3)CC2)c1 (centres undefined) | inconclusive: 4.62% [signal inhibitor] | 
8 | OCCN1CCN(C(c2cccs2)c2ccc3cccnc3c2O)CC1 (centres undefined) |  | inconclusive: 6.31 µM [rising, single point]
9 | CC1CCN(S(=O)(=O)c2ccc3c(c2)N(CC(=O)NC(C)c2ccccc2)C(=O)CS3)CC1 (centres undefined) | inconclusive: 3.28% [signal inhibitor] | 
10 | CN(CCc1ccc(Cl)c(Cl)c1)CCN1CCCCCC1 | inactive | 
11 | CC(C)c1nc(N2CCN(C(=O)c3ccco3)CC2)c2c3c(sc2n1)CCCC3 | inconclusive: -5.68% [signal inhibitor] | 
12 | CC(C)Cn1cc(NC(=O)N2CCN(c3cccc(Cl)c3)CC2)c2ccccc2c1=O | inconclusive: 2.83% [signal inhibitor] | 
13 | CCSc1nnc(NC(=O)c2cccs2)s1 |  | inconclusive: 25.1 µM [signal inhibitor, partial curve]
14 | COc1ccc(N2CCN(Cc3nc(N)nc(Nc4ccc(C)c(Cl)c4)n3)CC2)cc1 | inconclusive: 10.8% [signal inhibitor] | 
15 | CCc1ccc(NC(=O)N2CCOc3ccc(Cl)cc32)cc1 | inconclusive: 1.16% [signal inhibitor] | 
16 | O=C(Nc1ccc2c(c1)OCO2)c1cccs1 | inactive | 
17 | COc1cc(Cl)c(S(=O)(=O)NCCc2c(C)[nH]c3c(C)cccc23)cc1Cl | inconclusive: 4.84% [signal inhibitor] | 
18 | COC(=O)c1ccc(NC(=O)CC2C(=O)N(c3cccc(OC)c3)C(=O)N2Cc2cccs2)cc1 (centres undefined) | inconclusive: 2.63% [signal inhibitor] | 
19 | CCOc1ccc(-c2cc(CCCC(=O)Nc3cc(OC)ccc3OC)no2)cc1 |  | inconclusive: 2.51 µM [signal inhibitor, partial curve]
20 | C=CCSc1nnc2c(n1)[nH]c1c(C)cccc12 | inconclusive: 15.9% [signal inhibitor] | 
21 | O=C(c1ccccc1)N1CCN(C(=O)c2ccccc2Br)CC1 | inactive | 
22 | Cc1ccc(-c2nc(NC(=O)CSc3cc(C)c4ccccc4n3)ns2)cc1 | inconclusive: 3.5% [signal inhibitor] | 
23 | CCCCN(CC)C(=O)CSc1nc2n[nH]c(C)c2c(=N)n1-c1cccc(Cl)c1 | inconclusive: 0.888% [signal inhibitor] | 

Row | SMILES | IkBa stabilization activation | Potency
24 | Cc1ccc(NC(=O)Cc2ccc(-n3c(C)nc4cccnc43)cc2)c(Cl)c1 | inconclusive: -0.146% [signal inhibitor] | 
25 | CCC(=O)N1CCc2cc(Br)cc(S(=O)(=O)CCC(=O)NCc3ccccc3OC)c21 | inconclusive: 4.17% [signal inhibitor] | 
26 | COc1ccc2oc(-c3ccccc3)c(OC)c(=O)c2c1 | inactive: -3.53% [at 11.4 µM, scaled: untreated 0%, proteasome inhibitor 100%] | 
27 | COc1ccc(S(=O)(=O)Nc2cccc(-c3ccc(N4CCCC4)nn3)c2)c(OC)c1 | inactive | 
28 | Cc1ccc(C)c(NC(=O)N2CCN(C(=O)c3nsc4ccccc34)CC2)c1 | inactive | 
29 | NC(=O)C1CCN(C(=O)c2ccc(NC(=O)c3nsc4ccccc34)cc2)CC1 | inconclusive: 12.9% [signal inhibitor] | 
30 | Nc1ccc(N=Nc2c(S(=O)(=O)O)cc3ccccc3c2S(=O)(=O)O)cc1 | inactive: 2.06% [at 11.4 µM, scaled: untreated 0%, proteasome inhibitor 100%] | 
31 | NC[C@@H]1O[C@@H](O[C@H]2[C@@H](O)[C@H](O[C@@H]3[C@H](O)[C@H](N)C[C@H](N)[C@H]3O[C@@H]3O[C@@H](CO)[C@H](O)[C@H](O)[C@@H]3N)O[C@H]2CO)[C@H](N)[C@H](O)[C@@H]1O | inconclusive: 10.6% [signal activator] | 
32 | Cc1ccc(NC(=O)CCSc2nnnn2-c2ccc3c(c2)OCO3)cc1C | inconclusive: 2.84% [signal inhibitor] | 
33 | Cn1c(CCN2CCOCC2)nc2cc(NC(=O)COc3ccc(Cl)cc3)ccc21 | inactive | 
34 | Clc1cccc(-c2ccc(CNCCSc3nnnn3-c3ccccc3)o2)c1 | inconclusive: -2.4% [signal inhibitor] | 
35 | O=C(c1ccccc1)N1CCN(CCc2ccncc2)CC1 | inconclusive: -1.73% [signal inhibitor] | 
36 | Cc1cc(OCC(=O)O)c2cccc(C)c2n1 | inactive | 
37 | CC(=O)c1ccc(NC(=O)c2nc3ccccc3nc2N2CCCCC2)cc1 | inconclusive: 1.7% [signal inhibitor] | 
38 | Cc1[nH]nc2c1C1(CCC3(CC1)OCCO3)C(C#N)=C(N)O2 | inactive | 
39 | COc1ccc(Cn2c(C(=O)O)c(CNCc3ccccc3F)c3ccc(OC)cc32)cc1 | inconclusive: 2.57% [signal inhibitor] | 
40 | COC(=O)c1ccc(C2c3c(-c4ccccc4O)n[nH]c3C(=O)N2Cc2cccnc2)cc1 (centres undefined) | inconclusive: 3.13% [signal inhibitor] | 
41 | CCN(CCCNC(=O)Cn1ncc2c3ccccc3n(C)c2c1=O)Cc1ccccc1 | inconclusive: 1.69% [signal inhibitor] | 
42 | CCCSc1ncc(Cl)c(C(=O)Nc2ccc(S(=O)(=O)N(C)c3ccccc3)cc2)n1 | inactive | 
43 | O=C(Nc1cc(-c2nc3cc(Cl)ccc3o2)ccc1Cl)c1ccco1 |  | inconclusive: 12.6 µM [signal inhibitor, partial curve]
44 | CC1CCCN(C(=O)CSc2c3c(nc4cc(Cl)ccc24)CCCC3)C1 (centres undefined) | inactive | 
45 | CCc1ccc(NC(=O)CSc2nc(=O)n(Cc3ccccn3)c3c2CCC3)cc1 | inconclusive: 0.0526% [signal inhibitor] | 
46 | COc1cccc(C2C(C(=O)Nc3ccc(C)cc3C)=C(C)Nc3c(C(=O)Nc4ccccc4)cnn32)c1 (centres undefined) | inconclusive: 3.04% [signal inhibitor] | 

Row | SMILES | IkBa stabilization activation | Potency
47 | O=C(O)c1cccc(C(=O)Nc2cccc(NC(=O)C3CCCO3)c2)c1 (centres undefined) |  | inconclusive: 25.1 µM [signal inhibitor, partial curve]
48 | COc1ccc(NC(=O)c2cc(S(=O)(=O)N3CCOCC3)ccc2OC)cc1 | inconclusive: 1.03% [signal inhibitor] | 
49 | Oc1ccc(Cl)cc1Cc1cc(Cl)ccc1O | inconclusive: -0.663% [signal inhibitor] | 
50 | CN(C)CCN(Cc1ccco1)C(=O)c1cc2c(s1)-c1ccccc1OC2 | inactive | 
51 | COc1ccc(-c2onc(C)c2C)cc1S(=O)(=O)Nc1cccc(C#N)c1 | inconclusive: 9% [signal inhibitor] | 
52 | O=C(NCCc1ccc(Cl)cc1)c1ccc2c(c1)nc1n2CCOC1 | inconclusive: 1.32% [signal inhibitor] | 
53 | CC(=O)C1=C(c2ccc(F)cc2)N(C(C)=O)n2c(nnc2C2CCCCC2)S1 | inconclusive: 0.465% [signal inhibitor] | 
54 | CCOc1ccc(C(=O)NCC(c2ccc(Cl)cc2)N2CCCCC2)cc1 (centres undefined) | inconclusive: 5.71% [signal inhibitor] | 
55 | Cn1cccc1Cc1nnc(SCC(=O)Nc2ccccc2F)n1CCc1ccccc1 | inactive | 
56 | COc1ccc(CN(C(=O)c2ccco2)c2ccc(Br)cc2)cc1OC | inconclusive: 0.731% [signal inhibitor] | 
57 | O=C(Cn1ncc2c3ccccc3n(Cc3cccc(Cl)c3)c2c1=O)NCCCN1CCCCC1 | inconclusive: 1.65% [signal inhibitor] | 
58 | Cc1ccc(NC(=O)CSc2nc(-c3cccs3)nc3cc(=O)[nH]n23)cc1C | inconclusive: 0.649% [signal inhibitor] | 
59 | Cc1ccc(C)c(N2CCN(C(=O)C3CCN(c4nc(C)cc(C)n4)CC3)CC2)c1 | inconclusive: 4.07% [signal inhibitor] | 
60 | COC(=O)c1cc(CSc2nc3ccc(C)cc3[nH]2)oc1C | inconclusive: 5.89% [signal inhibitor] | 
61 | O=C(NCCc1ccccc1)C1CCN(Cc2cc3ccccc3n2Cc2ccccc2)CC1 | inconclusive: 1.54% [signal inhibitor] | 
62 | COc1ccc(-c2cn3cccnc3n2)cc1NC(=O)Nc1cc(C)ccc1C |  | inconclusive: 31.6 µM [signal activator, single point]
63 | CCOc1ccc(-c2cc(C(=O)NC(C)c3ccccc3)c3ccccc3n2)cc1 (centres undefined) | inconclusive: 0.564% [signal inhibitor] | 
64 | CCOc1ccc(N2CC(=O)SC2=S)cc1 | inconclusive: 10.8% [signal inhibitor] | 
65 | COc1ccccc1-c1c(C)c(C)nc(N)c1C#N | inactive | 
66 | O=C(Nc1ccc(C(=O)N2CCN(c3ccccc3F)CC2)cc1)c1nsc2ccccc12 |  | inconclusive: 1.26 µM [signal inhibitor, full curve]
67 | CCN1CSC(=S)N(Cc2ccc(OC)cc2)C1 |  | inconclusive: 31.6 µM [signal inhibitor, partial curve]
68 | CC(C)(C)C(=O)Nc1ccc(-c2cn3ccsc3n2)cc1 | inactive | 
69 | CC(=O)c1cccc(NC(=O)Nc2ccc(C(=O)N3CCOCC3)cc2)c1 | inactive | 
